The RNAGym collection of RNA variant scans (doi:10.1093/nar/gkz1192)
The source gives no read counts; variants with many changes may rest on few reads.

B1: CPEB3 Ribozyme (parent)
chain: UAACAGGGGGCCACAGCAGAAGCGUUCACGUCGCAGCCCCUGUCAGAUUCUGGUGAAUCUGCGAAUUCUGCUGUAUAUCUC

Variants of: B1
Test: self-cleavage, relative activity (ratio to wild type); higher = more cleavage; in vitro, sequencing
Outline: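 Barcoded CPEB3 ribozyme mutants, produced by rounds of error-prone PCR, self-cleaved while being transcribed with T7 RNA polymerase for 5 hours at 37°C and during a subsequent 15 min DNase I step before EDTA was added. Sequencing of template-switched cDNA on Illumina gave cleaved and total reads, and DNA sequencing assigned barcodes to variants. Each variant's relative activity is its cleaved/total read fraction divided by the unmutated ribozyme's fraction, averaged across three batches. A variant needed a minimum of 5 reads.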
Variant UAACAGGGGGCCACAGCAGGAGCGUUCACGUCGCAGCCCCUGUCAGAUUCUGGUGUAUCUGCGGAUUCUGCUGUAUAUCUC [A20G A56U A64G] has a self-cleavage of 0.32.
UAACAGGGGGCCACAGCAGGAGCGUUCACGUCGCAGCCCCUGUCAGAUUCUGGUGACUCCGCGAAUUCUGCUUUACAUCUC [A20G A57C U60C G73U U76C] showed a self-cleavage of 0.09.
UAACAGGGGGCCACAGCAGGAGCGUUCACGUCGCAGCCCCUGUCAGAUUCUGGUGACUCUGCGAAUCCUGCUGUAUAUCUC [A20G A57C U67C] gave a self-cleavage of 0.44.
UAACAGGGGGCCACAGCAGGAGCGUUCACGUCGCAGCCCCUGUCAGAUUCUGGUGAGCCUGCGAAUUCUGCUGAAAAUCUC [A20G A57G U58C U74A U76A] gave a self-cleavage of 0.31.
Variant UAACAGGGGGCCACAGCAGGAGCGUUCACGUCGCAGCCCCUGUCAGAUUCUGGUGAGUCAGCGAUUUCUGCUGUAUGUCUC [A20G A57G U60A A65U A77G] has a self-cleavage of 0.12.
Work on UAACAGGGGGCCACAGCAGGAGCGUUCACGUCGCAGCCCCUGUCAGAUUCUGGUGAGUCUGCGAACUCUGCAGUAUAUCUC [A20G A57G U66C U72A] yielded a self-cleavage of 0.14.
Work on UAACAGGGGGCCACAGCAGGAGCGUUCACGUCGCAGCCCCUGUCAGAUUCUGGUGAGUCUGCGAAUACUGCUGUAUAUCUC [A20G A57G U67A] yielded a self-cleavage of 0.43.
Variant UAACAGGGGGCCACAGCAGGAGCGUUCACGUCGCAGCCCCUGUCAGAUUCUGGUGAGUCUGCGAAUUCUGCAGUAUAUCUC [A20G A57G U72A] has a self-cleavage of 0.36.
UAACAGGGGGCCACAGCAGGAGCGUUCACGUCGCAGCCCCUGUCAGAUUCUGGUGAAUCUGCGGAUUCUGCUGUAUUUCCC [A20G A64G A77U U80C] gave a self-cleavage of 0.51.
For UAACAGGGGGCCACAGCAGGAGCGUUCACGUCGCAGCCCCUGUCAGAUUCUGGUGAAUCUGCGGAUUCUUCCGCAUAUCUC [A20G A64G G70U U72C U74C], the self-cleavage was 0.15.
UAACAGGGGGCCACAGCAGGAGCGUUCACGUCGCAGCCCCUGUCAGAUUCUGGUGAAUCUGCGGAUUCAGCUGUAUAUCUC [A20G A64G U69A] gave a self-cleavage of 0.13.
With UAACAGGGGGCCACAGCAGGAGCGUUCACGUCGCAGCCCCUGUCAGAUUCUGGUGAAUCUGCGGAUUCUGCUGCAUAUCUC [A20G A64G U74C] the self-cleavage was 1.19.
Work on UAACAGGGGGCCACAGCAGGAGCGUUCACGUCGCAGCCCCUGUCAGAUUCUGGUGAAUCUGCGUGUUCUGCUGUAUAUCUC [A20G A64U A65G] yielded a self-cleavage of 0.11.
With UAACAGGGGGCCACAGCAGGAGCGUUCACGUCGCAGCCCCUGUCAGAUUCUGGUGAAUCUGCGUAUUCUGCCGUAUAUCUC [A20G A64U U72C] the self-cleavage was 0.43.
For UAACAGGGGGCCACAGCAGGAGCGUUCACGUCGCAGCCCCUGUCAGAUUCUGGUGAAUCUGCGACUUCCGCUGUAUAUCUC [A20G A65C U69C], the self-cleavage was 0.07.
UAACAGGGGGCCACAGCAGGAGCGUUCACGUCGCAGCCCCUGUCAGAUUCUGGUGAAUCUGCGAGUUCAGCUGUAUACCUC [A20G A65G U69A U78C] showed a self-cleavage of 0.16.
Work on UAACAGGGGGCCACAGCAGGAGAGUUCACGUCGCAGCCCCUGACAGAUUCUGGUGAAUCUGCGAAUUAAGCUGUAUAUCUC [A20G C23A U43A C68A U69A] yielded a self-cleavage of 0.14.
In the case of UAACAGGGGGCCACAGCAGGAGAGUUCACGUCGCAGCCCCUGUCAGAUUCUGGUGAAUCUGCGAAUUCUGCCGUAUAUAUC [A20G C23A U72C C79A], the self-cleavage is reported as 0.46.
Work on UAACAGGGGGCCACAGCAGGAGUGUUCACGUCGCAGCCCCUGUCAGAUUCUGGUGAAUCUGCGGAUUCCGCUGUAUAUCUC [A20G C23U A64G U69C] yielded a self-cleavage of 0.15.
UAACAGGGGGCCACAGCAGGAGUGUUCACGUCGCACCCCCUGUCAGAUUCUGGUGAAUCUGCGAAUUCUGCUGUAUAUCUC [A20G C23U G36C] showed a self-cleavage of 0.25.
UAACAGGGGGCCACAGCAGGAGUGUUCACGUCGCAGCCCCUGUCAGAUUCUGGUGAAUCUCCGAAUUCUGCUGUAUAUCUC [A20G C23U G61C] gave a self-cleavage of 0.07.
With UAACAGGGGGCCACAGCAGGAGUGUCCAUGUCGCAGCCCCCGUCAGAUUCUGGUGAAUCUGCGGAUUCUGCUGUAUAUCUC [A20G C23U U26C C29U U41C A64G] the self-cleavage was 0.04.
Variant UAACAGGGGGCCACAGCAGGAGUGUUCACGCCGCAGCCCCUGUCAGACUCUGGUGAAUCUCCGGGUUCUGCUGUAUAUCUC [A20G C23U U31C U48C G61C A64G A65G] has a self-cleavage of 0.02.
Work on UAACAGGGGGCCACAGCAGGAGUGUUCACGUCGCAGCCCCUGUCAGAUUCCUGUGAAUCUGCGAAUUCUGCUGUAUAUCUC [A20G C23U U51C G52U] yielded a self-cleavage of 0.27.
UAACAGGGGGCCACAGCAGGAGCGUUAACGUCGCAGCCCCUGUCAGAUUCUGGUGAAUCUGCGUAUUCUGCUGUAUAUCUC [A20G C27A A64U] showed a self-cleavage of 0.25.
UAACAGGGGGCCACAGCAGGAGCGUUAACGUCGCAGCCCCCGUCAGAUUCCGGUGAAUCUGCGAAUUCUGCUGUAUAUCUC [A20G C27A U41C U51C] gave a self-cleavage of 0.07.
UAACAGGGGGCCACAGCAGGAGCGUUGACGUCGCAGCCCCUGUCAGGUUCUGGUGAAUCUGCGAAUUCUGCUGUAUAUCUC [A20G C27G A47G] showed a self-cleavage of 0.06.
UAACAGGGGGCCACAGCAGGAGCGUUGACGUCGCAGCCCCUGUCAGAUUCUGGUGAAUCCGCGAAUUCUGCUGUAUAUCUC [A20G C27G U60C] gave a self-cleavage of 0.25.
UAACAGGGGGCCACAGCAGGAGCGUUUACGUCGCAGCCCUUGCCAGAUUCUGGUGAAUCUGCGAAUUCUGCUGUAUAUCUC [A20G C27U C40U U43C] showed a self-cleavage of 0.23.
With UAACAGGGGGCCACAGCAGGAGCGUUUACGACGCAGCCCCUGUCAGAUUCUGGUGAAUCUGCGAAUUCUGCUGUAUAUCUC [A20G C27U U31A] the self-cleavage was 0.3.
Variant UAACAGGGGGCCACAGCAGGAGCGUUCAAGUCGCAGUCCCUGUCAGAUUCUGGUGUAUCCACGGAUUCUGCUGUAUAUCUC [A20G C29A C37U A56U U60C G61A A64G] has a self-cleavage of 0.04.
With UAACAGGGGGCCACAGCAGGAGCGUUCAAGUCGCAGCCCCCGUCAGAUUCUGGUGAAUCUGCGUAUUCUGCUGUAUAUCUC [A20G C29A U41C A64U] the self-cleavage was 0.11.
Work on UAACAGGGGGCCACAGCAGGAGCGUUCAUGUCGCAUCCCCUGUCGGAUUCUGGUGAACCUGCGAAUUCUGCUGUGUAUCUC [A20G C29U G36U A45G U58C A75G] yielded a self-cleavage of 0.05.
UAACAGGGGGCCACAGCAGGAGCGUUCAUGUCGCAGCCCCUGCCAGAUUCUGGUGAAUCUGCGAAUUCUGCUGUAUAUCUC [A20G C29U U43C] showed a self-cleavage of 0.11.
